Source: PubChem BioAssay AID1159614 (National Center for Advancing Translational Sciences (NCATS), 2016)
Screen size: about 45,000 compounds; about 65 (0.1%) were called active. Calls follow the shape of the dose curve; as a rule, active = well fitted activation curve with a large enough effect; inconclusive = small, poorly fitted or top-dose-only effect; inactive = no such curve, though single readings can be large or run the other way. Some of the results follow.

Each compound was assayed against Galactocerebrosidase (Homo sapiens) (UniProt P54803) (assay: A Novel Cell-Based Assay to Identify Small Molecules for B -Galactocerebrosidase). Conditions: 145M-Twi-hGALC-G270D cells (Twitcher mouse brain line with human GALC G270D), HMU-beta-Gal fluorescence, 48 h; series mostly up to 57.5 µM; activation: at the top concentration.
UniProt P54803, sequence (P54803 whole entry, looked up): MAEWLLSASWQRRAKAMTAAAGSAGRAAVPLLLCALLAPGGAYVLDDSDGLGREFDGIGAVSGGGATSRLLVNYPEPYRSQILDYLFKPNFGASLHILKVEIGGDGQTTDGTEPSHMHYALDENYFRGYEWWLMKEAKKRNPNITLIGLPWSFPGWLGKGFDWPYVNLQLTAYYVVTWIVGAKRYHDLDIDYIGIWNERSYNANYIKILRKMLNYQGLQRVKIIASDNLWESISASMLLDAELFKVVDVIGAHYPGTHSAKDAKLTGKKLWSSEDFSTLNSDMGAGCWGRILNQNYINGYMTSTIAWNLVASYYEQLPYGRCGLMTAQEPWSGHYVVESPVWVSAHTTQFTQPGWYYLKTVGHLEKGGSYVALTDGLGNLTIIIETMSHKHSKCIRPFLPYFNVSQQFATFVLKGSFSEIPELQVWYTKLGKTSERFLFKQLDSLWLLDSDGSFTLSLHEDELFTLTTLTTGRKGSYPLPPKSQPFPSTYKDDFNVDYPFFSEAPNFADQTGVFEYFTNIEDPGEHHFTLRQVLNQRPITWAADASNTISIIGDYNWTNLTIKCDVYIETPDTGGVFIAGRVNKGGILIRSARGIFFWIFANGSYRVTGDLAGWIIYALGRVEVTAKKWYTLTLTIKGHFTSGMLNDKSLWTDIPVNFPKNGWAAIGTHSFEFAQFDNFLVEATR
In short: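 Live 145M-Twi cells (Twitcher mouse brain-derived, GALC-null) stably expressing human GALC-G270D, with a wild-type GALC line, were compound-treated. Residual GALC activity was then read as fluorescence from 0.1 mM final HMU-β-gal at pH 5.2; higher signal means activation.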
Also: 0% is about no effect; nearly all actives have a fitted effect of over 65% in size.

activation, inactive:
Cc1ccc(N(Cc2cccs2)C(=O)C(C)Oc2ccc(Cl)c(C)c2)cc1 (stereo not given) 30.1%
Cc1ccc(C)c(NC(=O)Cn2nc(C)c3nn(-c4ccc(Cl)cc4)c(C)c3c2=O)c1 7.78%
O=C(Nc1cccc(Cl)c1Cl)c1ccc2c(c1)N(Cc1cccc(Cl)c1)C(=O)c1ccccc1S2=O (stereo not given) -3.17%
COc1ccc(N2CCN(c3ccc(-c4nc(-c5ccccc5)no4)cc3[N+](=O)[O-])CC2)cc1 -14.2%
CCn1c2ccccc2c2cc(CN3CCN(Cc4cc(OC)c(O)c(OC)c4)CC3)ccc21 2.51%
COc1ccc(CNC(=O)CCS(=O)(=O)c2cc(Br)cc3c2N(C(C)=O)C(C)C3)cc1 (stereo not given) 1.21%
CCOc1ccccc1NC(=O)CCCc1nc(-c2ccccc2Cl)no1 -10.5%
CCN(CC)S(=O)(=O)c1ccc2c(c1)N(CC(=O)N1CCN(c3ccc(OC)cc3)CC1)C(=O)CO2 -5.74%
Cn1cnc(S(=O)(=O)N2CCCC(C(=O)NCc3ccc(Cl)cc3)C2)c1 (stereo not given) -4.4%
Cc1ccccc1Nc1c(-c2cccc(Cl)c2)nc2ncccn12 -14.7%
CCN(Cc1ccccc1)C(=O)c1cc(-c2ccccc2)n[nH]1 -32.3%
Cc1ccc(Cl)cc1N1CCN(C(=O)CN2C(=O)COc3ccc(S(=O)(=O)N4CCCCCC4)cc32)CC1 -0.733%
COc1ccc(S(=O)(=O)NCCSc2nnnn2-c2ccccc2)cc1OC -31.6%
Cc1c(C)n(Cc2ccccc2)c2ccc(C(=O)N3CCN(c4ccc(F)cc4)CC3)cc12 7.53%
CC(C)CCNC(=O)c1ccc2c(c1)NC(=O)C(C(C)C)N2 (stereo not given) -2.53%
Cc1c(C(=O)O)c(O)cc2c1C(=O)c1c(O)c([C@@H]3O[C@H](CO)[C@@H](O)[C@H](O)[C@H]3O)c(O)c(O)c1C2=O -8.76%
Cc1ccc(NC(=O)C2CCN(S(=O)(=O)c3ccc4[nH]c(=O)ccc4c3)CC2)cc1C -9.69%
Cc1ccccc1CNc1nc(N(C)C)nc2c1cnn2C -8.81%
CCc1ccccc1NCc1nnc2n1CCCCC2 -11%
Cn1c(=NC(=O)c2ccc(S(=O)(=O)N3CCCC3)cc2)sc2cc(F)ccc21 -13.2%
O=C1COc2cc(S(=O)(=O)CCC(=O)N3CCN(c4ccccc4F)CC3)c(Cl)cc2N1 -2.58%
CCOc1ccc(CCNC(=O)Cn2c(-c3cccs3)cc3cc(F)ccc32)cc1OCC -2.32%
CCc1cccc(CC)c1NC(=O)Cn1c(=O)c(-c2cc(C)ccc2NC(C)=O)nc2ccccc21 3.11%
CCc1ccc(CN(Cc2ccco2)c2cnc(S(C)(=O)=O)nc2C(=O)Nc2c(C)cccc2C)cc1 -20.5%
CCCc1cc(N2CCN(c3ccccc3)CC2)n2cnnc2n1 -2.82%
COc1cccc(N(Cc2nnc3n2CCCCC3)C(=O)Nc2ccccc2)c1 -31%
Cc1oc(-c2ccccc2F)nc1CSCC(=O)N1CCN(c2ccccc2)CC1 -6.94%
Cc1nc2nc(NC(=O)c3ccc(C(C)(C)C)cc3)[nH]n2c(=O)c1Cl -4.22%
Cc1cccc(N2CCN(S(=O)(=O)c3ccc4c(c3)C(C(C)C)C(=O)N4)CC2)c1C (stereo not given) -26.1%
Cc1ccc(-c2nnc(SCC(=O)c3ccc(Cl)cc3)n2-c2ccccc2)cc1 -1.9%
COc1cccc(CN2CCCN(CC(=O)Nc3ccc4c(c3)OCCO4)S2(=O)=O)c1 -8.58%
CCOc1ccccc1NC(=O)C1CCN(S(=O)(=O)c2cc(Br)cc3c2N(C(C)=O)CC3)CC1 -0.898%
O=C(Nc1cccc(O)c1)c1cc2nc(-c3ccc(Br)cc3)cc(C(F)(F)F)n2n1 4.26%
COc1ccc(N2CCN(C(=O)CSc3c4c(nc5ccc(Cl)cc35)CCCC4)CC2)cc1 -6.63%
CCN(CC)CCOC(=O)C(Cc1cccc2ccccc12)CC1CCCO1 (stereo not given) -12.7%
CCCCOc1ccc(C(=O)NCCc2sc(-c3ccc(OC)c(OC)c3)nc2C)cc1 -19.9%
CCOc1ccc(CNC(=O)c2ccc3c(c2)N(CC)CCS3)cc1 -2.01%
CCOC(=O)OCC/C(SC(=O)OCC)=C(\C)N(C=O)Cc1cnc(C)nc1N -2.63%
COc1cccc(CCNC(=O)c2cnc3sc(N4CCCCCC4)nn3c2=O)c1 -3.99%
O=C(Nc1ccc2oc(-c3cccnc3)nc2c1)c1ccc(-c2cccc(Cl)c2)o1 -3.94%
COc1ccc(CN(C)c2ccc(-c3nc(-c4ccccc4)no3)cc2[N+](=O)[O-])cc1 -14.6%
COc1ccc(S(=O)(=O)c2c(Nc3c(C)cccc3C)sc(C(=O)c3ccc4c(c3)OCO4)c2N)cc1 -10.5%
Cc1ccc(-n2nc3c(=O)n(CC(=O)NC(C)C)nc(C)c3c2C)cc1 9.43%
CS(=O)(=O)c1ncc(Cl)c(C(=O)Nc2c(C(=O)Nc3ccccc3)oc3ccccc23)n1 -12.3%
Cc1cccc(Nc2ncc(NC(=O)c3cccc(F)c3)c(Nc3cccc(C)c3)n2)c1 -7.86%
COc1ccc2c(CC(=O)Nc3ccc(C)cc3)coc2c1 -26.7%
CCC(CC)C(=O)Nc1ccc2nc(SCc3ccccc3)sc2c1 -14.6%
Clc1ccc(CCNc2nc3ccccc3c3nc(-c4ccccc4)nn23)cc1 -11.8%
CCN(C(=O)CSc1nnc(-c2cc(OC)c(OC)c(OC)c2)o1)c1ccccc1 -2.52%
COc1ccc(NC(=O)CSC2=Nc3ccccc3C3=NC(CC(=O)NCc4ccco4)C(=O)N23)cc1 (stereo not given) -19.5%
O=C(Cn1c(-c2cccs2)cc2ccccc21)N1CCN(c2ccccc2F)CC1 -3.96%
O=C(CSc1nnc(-c2ccncc2)n1-c1ccccc1)Nc1ccc(Cl)c(Cl)c1 -13.5%
CC1(C)S[C@@H]2[C@H](NC(=O)C(C(=O)O)c3ccccc3)C(=O)N2[C@H]1C(=O)O (stereo not given in full) -16.6%
CCOc1cc(CNC(=O)c2ccccc2NC(=O)c2nsc3ccccc23)ccc1OC -10%
Cc1ccc(C(=O)N(Cc2ccco2)Cc2ccco2)cc1 -5.17%
CCOc1cccc(CC(=O)NCc2ccc3c(c2)CCN3C(=O)c2ccc(F)cc2)c1OCC -16.6%
CCOc1ccc(NC(=O)Cn2cc(C(=O)c3cccs3)c3ccccc32)cc1 -1.77%
CC(CNC(=O)CN1C(=O)COc2ccc(S(=O)(=O)N3CCCCCC3)cc21)c1ccccc1 (stereo not given) -1.46%
COc1ccc(CCNC(=O)c2cccc(-n3cnc4cccnc43)c2C)cc1OC -23.1%
CCCCNC(=O)c1nn(-c2ccc(C)cc2)c(=O)n(C)c1=O -9.67%
